From PMC7616173 (ACS chemical neuroscience, 2021)
Blank lines part the entries; values can stand above or below the molecule they belong to.

Assays:
M5−M2 TM3,4,5 chimera = molecular target: T1, M5−M2 TM3,4,5 chimera (Homo sapiens, UniProt P08172+P08912); experiment: interaction binding between [^3H]-NMS and ACh in the presence of ML375
T1 sequence (P08912 with tags, fused parts or gaps): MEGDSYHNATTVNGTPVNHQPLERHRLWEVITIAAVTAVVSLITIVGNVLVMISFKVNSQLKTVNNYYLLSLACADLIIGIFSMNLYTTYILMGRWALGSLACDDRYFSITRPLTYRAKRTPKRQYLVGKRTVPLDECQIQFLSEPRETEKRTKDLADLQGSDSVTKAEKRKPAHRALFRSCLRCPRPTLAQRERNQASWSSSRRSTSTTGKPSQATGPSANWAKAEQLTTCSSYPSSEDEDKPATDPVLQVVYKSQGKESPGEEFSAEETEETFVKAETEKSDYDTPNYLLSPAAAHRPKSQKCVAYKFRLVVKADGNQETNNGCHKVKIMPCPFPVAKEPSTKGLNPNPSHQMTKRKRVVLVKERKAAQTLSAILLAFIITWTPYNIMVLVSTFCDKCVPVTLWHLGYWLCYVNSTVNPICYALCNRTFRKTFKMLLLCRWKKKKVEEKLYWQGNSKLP
T1 sequence (P08172 93-210): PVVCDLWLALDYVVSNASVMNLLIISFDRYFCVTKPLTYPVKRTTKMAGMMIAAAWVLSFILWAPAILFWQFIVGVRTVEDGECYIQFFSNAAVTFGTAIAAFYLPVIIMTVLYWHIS

M5−M2 TM2,3,4 chimera = M5−M2 TM2,3,4 chimera (Homo sapiens, UniProt P08172+P08912); experiment: as above
M5−M2 TM1,7,h8 chimera = M5−M2 TM1,7,h8 chimera (Homo sapiens, UniProt P08172+P08912); experiment: as above; conditions: M5−M2 TM1, TM7, H8 swap, [^3H]-NMS binding
M5−M2 ECL chimeras = experiment: interaction between [^3H]-NMS and ML375 at ECL chimeras; type: binding; conditions: M5−M2 ECL1, ECL2 and/or ECL3 chimeras, Figure S3
WT M5 mAChR = molecular target: T2, WT M5 mAChR (Homo sapiens, UniProt P08912); experiment: [^3H]-NMS equilibrium competition binding in WT membranes; parameters: expressed in transfected cells
T2 sequence (P08912 1-532): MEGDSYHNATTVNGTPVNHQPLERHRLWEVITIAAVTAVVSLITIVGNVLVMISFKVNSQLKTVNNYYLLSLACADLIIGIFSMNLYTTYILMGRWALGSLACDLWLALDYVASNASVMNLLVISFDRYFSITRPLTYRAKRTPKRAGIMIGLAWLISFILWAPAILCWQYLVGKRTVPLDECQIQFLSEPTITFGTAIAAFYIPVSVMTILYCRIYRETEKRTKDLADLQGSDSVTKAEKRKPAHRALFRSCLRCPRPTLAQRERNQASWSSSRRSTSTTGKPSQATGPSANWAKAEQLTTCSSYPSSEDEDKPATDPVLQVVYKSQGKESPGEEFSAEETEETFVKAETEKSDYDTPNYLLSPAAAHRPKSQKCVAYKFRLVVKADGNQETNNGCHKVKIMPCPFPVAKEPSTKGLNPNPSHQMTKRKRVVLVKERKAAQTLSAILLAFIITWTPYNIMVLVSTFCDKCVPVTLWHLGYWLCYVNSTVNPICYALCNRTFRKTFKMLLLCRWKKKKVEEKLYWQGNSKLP
From the text: (§1) Radioligand dissociation kinetics experiments were fitted to a monoexponential decay function.[56] […] IC50 values were converted to Ki values using the Cheng-Prusoff equation.[57]

[1] = test system: M5-T4L(S117R) mAChR, Sf9 cell membranes; experiment: [^3H]-NMS dissociation kinetics with PEG400 and ML375; type: binding; conditions: read-out: apparent affinity from [^3H]-NMS dissociation rate constants; absence of ML375, Sf9 cell membranes
Description: Sf9 cells expressing M5-T4L (S117R) mAChR were harvested after 60 h. Sf9 cell membranes were prepared by homogenization and centrifugation. The final membrane pellet was resuspended in 20 mM HEPES pH 7.4 and 0.1 mM EDTA. Protein concentration was determined by absorbance at 280 nm, and membranes were stored at −80 °C. Assays were conducted in UniFilter-96 GF/B plates (PerkinElmer) with 1 μg of membranes per well in a final volume of 300 μL of binding buffer consisting of 20 mM HEPES, 100 mM NaCl, and 10 mM MgCl2 at pH 7.4. […] Nonspecific binding was defined in the presence of 1 μM atropine. Assays were stopped by vacuum filtration and washed three times with ice-cold 0.9% sodium chloride. Plates were allowed to dry before 40 μL of Microscint-0 (PerkinElmer) was added to each well. Radioactivity was measured on a MicroBeta2 microplate counter.
as §1

Molecule: O=C(c1ccc(F)c(F)c1)N1CCN2C(=O)c3ccccc3[C@@]12c1ccc(Cl)cc1 [ML375, (S)-9b-(4-Chlorophenyl)-1-(3,4-Difluorobenzoyl)-2,3-Dihydro-1H-Imidazo[2,1-a]Isoindol-5(9bH)-One]
modulation of ACh binding by ML375 (M5−M2 TM3,4,5 chimera): complete loss in the modulation of ACh binding | modulation of ACh binding by ML375 (M5−M2 TM2,3,4 chimera): complete loss in the modulation of ACh binding | reduction of ML375 affinity vs WT M5 (M5−M2 TM1,7,h8 chimera): ~ 10 fold | ML375 affinity at ECL chimeras (M5−M2 ECL chimeras): no loss in ML375 affinity

Kb (WT M5 mAChR): 0.955 µM
Molecule: CCCCc1oc2ccccc2c1C(=O)c1cc(I)c(OCCN(CC)CC)c(I)c1 [amiodarone]

Kb (WT M5 mAChR): 9.33 µM
Molecule: CC[N+](CC)(CC)CCOc1cccc(OCC[N+](CC)(CC)CC)c1OCC[N+](CC)(CC)CC [gallamine]

Molecule: PEG400
Kd [1]: ~40000 µM
